Laboratory results: PubChem BioAssay AID1508624 (National Center for Advancing Translational Sciences (NCATS), 2021)
Among all 48,000 compounds or so, about 120 (0.25%) were called active. Roughly 4% stayed inconclusive and do not appear here. Calls come from the whole dose curve; as a rule, active = well fitted activation curve with a large enough effect; inconclusive = small, poorly fitted or top-dose-only effect, or another doubt; inactive = no such curve, though single readings can be large or run the other way. Some of the results follow.

Assay: Primary qHTS for Identification of Small Molecule Activators of Huntingtin-Antisense Promoter Activity; note: nearly all actives have a fitted effect of over 55% in size
Details: HEK293 HTT-AS promoter firefly luciferase reporter (activity 0% = vehicle and -100% = no light), 24 h; series mostly up to 57.5 µM; activity change, positive = activation: at the top concentration
How it was run: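 HEK293 luciferase promoter-reporter cells (2,500/well) plated 24 h, then compounds added at up to 57.5 uM final for 24 h at 37 °C. Firefly luminescence by Dual-Glo, normalized to vehicle (0%) and zero RLU (-100%).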

Activity change, positive = activation, inactive:
Cc1ccc(-c2nn3c(-c4ccccc4C)nnc3c3ccccc23)cc1 -42.3%
Cc1cn2c(=O)cc(COC(=O)c3ccc(NC(=O)COc4ccccc4C)cc3)nc2s1 -9.06%
CCOC(=O)c1cc(-c2ccccc2)n(-c2cccc(C(=O)Nc3cccc(SC)c3)c2)c1C -17.8%
CN1C(=O)C(Cc2c[nH]c3ccccc23)NC1=S (stereo not given) 13.3%
CCC(=O)Oc1ccc2c(c1)CC[C@@H]1[C@@H]2CC[C@@]2(C)[C@H]1C[C@@H](OC(=O)CC)[C@@H]2OC(=O)CC 1.14%
COc1ccc(CCC(=O)NCCc2csc(-c3ccc(F)cc3)n2)cc1 -4.32%
COc1cccc(CNC(=O)C2CCC(CNS(=O)(=O)c3ccc4c(c3)CCCC(=O)N4)CC2)c1 (stereo not given) 0.092%
CCN(CC)C(=O)Cn1c(=O)cc(C)c2c(C)nn(-c3cccc(Cl)c3C)c21 4.03%
Cc1ccc(NC(=O)CSc2nnc3scc(-c4ccc(Cl)cc4)n23)cc1 -7.79%
CCOC(=O)C1=C(CN2CCN(c3ccc(OC)cc3)CC2)NC(=O)NC1c1ccc(OC)cc1 (stereo not given) -24.5%
CCN(CC)CCCNc1oc(/C=C/c2ccc(OC)c(OC)c2)nc1C#N -16%
COc1ccc(NC(=O)Cn2cc(S(=O)(=O)N3CCN(c4ccccc4F)CC3)c3ccccc3c2=O)cc1Cl -12%
CCOc1ccc(-c2cc(C(=O)N3CCN(c4cc(Cl)ccc4C)CC3)c3ccccc3n2)cc1 -4.53%
CNc1c(NC(=O)c2ccc(OC)c(OC)c2)c(=O)oc2ccccc12 -1%
CN(C)c1nc(Cc2ccc(NC(=O)c3ccc(C(F)(F)F)cc3)cc2)nc(N(C)C)c1CC(=O)O -5.42%
Cc1cc2c(cc1S(=O)(=O)CCC(=O)N1CCC(C)CC1)OCC(=O)N2 -9.37%
CCc1ccc(C(=O)c2cn(CC(=O)Nc3ccc4c(c3)OCO4)c3ccc(CC)cc3c2=O)cc1 -13.6%
Cc1ccc(NC(=O)C(Cc2c[nH]c3ccccc23)NC(=O)OC(C)(C)C)c(C)c1 (stereo not given) -26.4%
Cc1cc(C)cc(NC(=O)NCCc2c(C)nn(C)c2C)c1 0.649%
Cc1cc(Nc2ccccc2F)n2nc(-c3ccccc3)nc2n1 -9.24%
CCOc1ccc(Nc2oc(-c3ccc(COc4ccc(OC)cc4)o3)nc2C#N)cc1 2.3%
CCOC(=O)C1CCN(c2cc3c(cc2NC(=O)c2ccc(Cl)cc2)n(C)c(=O)n3C)CC1 -9.49%
COC(=O)c1ccc(Cl)cc1NC(=O)N1CC2CCCN2c2ccccc21 (stereo not given) -28.3%
COc1ccc(S(=O)(=O)NCc2ccc3c(c2)CCN3C(=O)c2ccccc2)cc1OC -27.5%
COc1ccc(NC(=O)CN2C(=O)CCn3nc(-c4cccn4C)cc32)cc1 -3.09%
Cc1cc(C)c(Nc2nc3ccccc3n3c(C)nnc23)c(C)c1 -9.43%
Cc1ccc(NC(=O)C(=O)NCC(c2cccnc2)N2CCN(Cc3ccccc3)CC2)cc1C (stereo not given) -21.7%
COc1ccccc1OCCn1c(NC(=O)c2ccccc2Cl)nc2ccccc21 5.78%
CCOc1ccccc1NC(=O)c1c(NC(=O)COc2ccc(Cl)cc2)sc2c1CCCCC2 -14.6%
COCCNC(=O)CCC(=O)NNc1nc2ccccc2c2nc(C)nn12 -11.9%
Cc1ccc(NC(=O)C2(c3ccc4c(c3)OC(F)(F)O4)CC2)nc1-c1cccc(C(=O)O)c1 -34.9%
CS(=O)(=O)N1CCc2cc(C(=O)N3CCN(c4cccc(Cl)c4)CC3)ccc21 -2.8%
Cc1ccc(C)c(N2CCN(C(=O)c3cn(CC(C)C)c(=O)c4c3c3ccccc3n4C)CC2)c1 -10.4%
COCCCNc1nc(NCc2ccccc2OC)c2cnn(C)c2n1 -25.8%
Cc1ccc(NC(=O)C2(c3cccs3)CCOCC2)cc1Cl -16.6%
COc1ccc(Br)cc1C1C(C(=O)Nc2ccc(C)cc2C)=C(C)Nc2ncnn21 (stereo not given) -20.7%
Cc1ccc(C)c(CSc2nc(-c3ccccc3F)nc3c2Cc2c(CO)cnc(C)c2O3)c1 -9.65%
COc1cccc(NC(=O)Cn2nnc(C(=O)NCc3cccs3)c2N)c1 -0.23%
COc1ccc(NC(=O)Cn2c(=O)n(-c3cc(C)cc(C)c3)c(=O)c3oc4ccccc4c32)cc1OC -26.1%
O=C(NCCc1ccccc1)c1nn(-c2ccccc2F)nc1CO -24.9%
Cc1ccc2c(CNCCc3ccccc3)c(C(=O)O)n(Cc3ccccc3C)c2c1 -20%
CCC(Cn1nnc2ccccc2c1=O)NC(=O)Nc1cc(C)cc(C)c1 (stereo not given) -18.2%
CC(C)C(=O)Nc1nnc2n1CCS2 -1.88%
Cc1nc(N2CCCC2)c2c(C(=O)N3CCN(c4ccccc4)CC3)c(C)oc2n1 -7.7%
Cc1cc2c(n1-c1ccc(C(=O)NCCc3ccc(Cl)cc3)cc1)CCCC2 4.35%
CC(=O)N1CCCc2cc(S(=O)(=O)N3CCCC(C(=O)N4CCN(c5cccc(Cl)c5)CC4)C3)ccc21 (stereo not given) -51%
CCc1ccc(C(=O)c2cn(CC(=O)Nc3ccc(Cl)cc3)c3cc4c(cc3c2=O)OCO4)cc1 -29.5%
CCOc1ccc(CNC(=O)c2cccc(NC(=O)N3CCSc4ncccc43)c2)cc1OC -36.8%
Cc1ccc(S(=O)(=O)n2nc(C)c(S(=O)(=O)N3CCCCCC3)c2C)cc1 -17.1%
Cc1ccc(C)c(CSc2nnc3[nH]c(=O)cc(C)n23)c1 1.67%
CC(C)c1nn2c(=O)cc(COC(=O)c3cccc(NC(=O)COc4ccc(F)cc4)c3)nc2s1 -29.6%
COc1ccc(C)cc1NC(=O)c1noc2c1CSc1ccccc1-2 -10.9%
COc1ccc(C2C(C(=O)Nc3ccccc3)=C(C)Nc3c(C(=O)Nc4ccccc4)cnn32)cc1 (stereo not given) -22.2%
Cc1ccccc1CNC(=O)c1ccc2c(c1)c(C)c(C)n2C 0.753%
CN(C)c1ccc(CNC(=O)c2ccc(Cn3c(SCc4ccccc4)nc4cccnc43)cc2)cc1 7.88%
Cc1ccc(Cl)cc1NC(=O)C1CCN(c2nnc(C)c3c(C)n(-c4ccccc4)nc23)CC1 -0.767%
CCc1ccc(CNC(=O)c2cnc3sc(N4CCCC4)nn3c2=O)cc1 0.497%
Cc1ccccc1Cn1nnc2c(=O)[nH]c(C3CCN(C(=O)c4ccc(F)cc4)CC3)nc21 -27.3%
Cc1cc(C)c(Cn2c3ccccc3c3cnn(CC(=O)NCc4cccs4)c(=O)c32)c(C)c1 -15.5%
Cc1cccc(N(C)c2nc3ccccc3c3nnc(C)n23)c1 -22.1%
